Experimental data: PMC4336329 (PLoS ONE, 2015)
Hit rate of the full screen: of about 310,000 compounds, about 14,000 (4.5%) showed an effect of 50% or more. The effect is printed as a negative number. This is one part of the list.

target: human ether-à-go-go-related gene (hERG) potassium channel (human, UniProt Q12809); experiment: primary screen, population patch clamp on CHO cells stably expressing hERG
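Note: peak tail current of the secondary pulse compared with the same well before compound.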

Sequence of human ether-à-go-go-related gene (hERG) potassium channel (Q12809 whole entry, looked up): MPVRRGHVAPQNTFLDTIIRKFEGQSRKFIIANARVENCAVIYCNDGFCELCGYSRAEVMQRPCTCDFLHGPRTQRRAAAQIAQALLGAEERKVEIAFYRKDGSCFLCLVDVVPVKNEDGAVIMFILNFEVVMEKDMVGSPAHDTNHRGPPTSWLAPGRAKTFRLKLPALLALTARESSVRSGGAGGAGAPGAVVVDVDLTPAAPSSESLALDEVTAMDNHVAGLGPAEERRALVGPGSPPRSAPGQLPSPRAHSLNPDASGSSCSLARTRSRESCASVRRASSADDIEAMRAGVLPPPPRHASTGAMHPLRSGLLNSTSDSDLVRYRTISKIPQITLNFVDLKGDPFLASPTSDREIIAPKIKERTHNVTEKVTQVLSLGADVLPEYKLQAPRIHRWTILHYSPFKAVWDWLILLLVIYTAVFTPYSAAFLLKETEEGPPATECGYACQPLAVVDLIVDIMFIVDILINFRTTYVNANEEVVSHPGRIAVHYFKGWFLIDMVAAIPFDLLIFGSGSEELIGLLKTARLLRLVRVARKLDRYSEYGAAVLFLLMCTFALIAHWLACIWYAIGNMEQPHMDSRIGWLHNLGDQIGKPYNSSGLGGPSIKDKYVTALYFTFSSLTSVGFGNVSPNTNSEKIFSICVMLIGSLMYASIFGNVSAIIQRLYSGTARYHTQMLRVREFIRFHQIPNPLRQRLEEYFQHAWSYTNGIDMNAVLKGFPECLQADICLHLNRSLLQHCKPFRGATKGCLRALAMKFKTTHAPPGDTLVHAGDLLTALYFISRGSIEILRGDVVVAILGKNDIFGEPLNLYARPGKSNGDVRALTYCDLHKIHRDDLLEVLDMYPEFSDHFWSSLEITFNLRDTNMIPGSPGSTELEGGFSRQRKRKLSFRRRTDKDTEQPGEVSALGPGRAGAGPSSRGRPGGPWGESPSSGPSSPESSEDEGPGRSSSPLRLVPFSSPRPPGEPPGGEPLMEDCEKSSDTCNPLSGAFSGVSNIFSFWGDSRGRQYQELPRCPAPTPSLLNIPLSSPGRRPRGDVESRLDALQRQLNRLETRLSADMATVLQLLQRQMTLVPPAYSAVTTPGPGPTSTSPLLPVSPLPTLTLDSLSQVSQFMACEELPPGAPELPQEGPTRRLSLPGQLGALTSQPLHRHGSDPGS

Structure (SMILES) | hERG current change (%, negative = inhibition) at 10uM [%]
Cc1nc2ccccc2n1CC(=O)N/N=C\C=C\c1ccccc1 | 10.9
CCc1[nH]nc(C(=O)NC2CCCN(Cc3ccccc3F)C2)c1C (stereo not drawn) | 0.368
COc1cccc(OC)c1C(=O)Nc1ccnn1C | -31.2
CCNS(=O)(=O)c1ccc(NC(=O)c2cccnc2)cc1 | 18.5
COCCCNc1ncnc2sc3c(c12)CCC(C)C3 (stereo not drawn) | -24.5
Cc1ccc2nc(SCC(=O)N/N=C/c3ccc(C(=O)O)cc3)cc(C)c2c1 | -18.1
c1ccc2c(Cn3ccnc3)cccc2c1 | 9.72
Cn1c(NCCCO)nc2c(c1=O)C1(CCCCC1)Cc1ccccc1-2 | -11.8
COc1ccc2[nH]c(C)c(CCNC(=S)Nc3ccc(C)cc3)c2c1 | -0.172
Cc1c(Cl)cccc1NC(=O)c1cc(-c2ccco2)on1 | -0.802
CNC(=O)COC(=O)c1cc(SC)ccc1Cl | 23.6
Cc1ccc(NC(=O)N(CCCN2CCOCC2)Cc2cccs2)cc1C | -47.6
CN(C)S(=O)(=O)c1ccc(NC(=O)CCNC(=O)c2ccco2)cc1 | 9.63
Cc1ccc(C2OC(=O)c3ccccc32)cc1 (stereo not drawn) | -0.543
COc1cc(C(=O)N/N=C/c2ccc(OC(=O)c3ccccc3Cl)c(OC)c2)ccc1O | 13.4
O=C(Nc1nccs1)c1cn(-c2ccccc2)nc1-c1ccccc1 | -23.8
COc1ccc(CCNC(=O)COC(=O)C2CC2C)cc1OC (stereo not drawn) | 6.27
COc1cccc(C=NCCNC(=O)c2nonc2N)c1O | 1.59
COc1ccc(CN=C(NS(=O)(=O)c2cccs2)SC)cc1 | -5.77
CS(=O)(=O)N1CC2CCCN2c2cc(C(F)(F)F)ccc21 (stereo not drawn) | -19.2
CCn1c(COc2c(C)cccc2C)nnc1SCC(=O)N1CCN(c2ccccc2)CC1 | -8.6
O=C(C#Cc1ccccc1)Nc1cccc(F)c1 | -21.7
Cc1ccc(-c2csc(NC(=O)CSc3nc(C)cc(=O)[nH]3)n2)cc1 | 1.07
CC(C)NC(=O)C(OC(=O)c1ccccc1)C(OC(=O)c1ccccc1)C(=O)O (stereo not drawn) | 10.9

Structure (SMILES) | hERG current change (%, negative = inhibition) at 10uM [%]
CC(C)C(c1nnnn1Cc1ccco1)N1CCC(C(N)=O)CC1 (stereo not drawn) | 9.26
Br.CC(=O)Nc1ccc(-c2csc(N/N=C(/C)c3ccccc3)n2)cc1 | 5.38
CCn1c(=O)c(C(=O)CN2CCN(Cc3ccc4c(c3)OCO4)CC2)c(N)n(Cc2ccccc2)c1=O | -72
CCCc1cc(=O)[nH]c(SCC)n1 | -5.96
Cc1cc(=O)oc2cc(OCC(=O)Nc3nnc(C4CC4)s3)ccc12 | -0.423
CC(C)C[C@H](NC(=O)C1CC(=O)N(c2ccc(F)cc2)C1)C(=O)N1CCCCC1 (stereo partly drawn) | -0.716
O=C(Cc1cccs1)N1CCN(c2nc(-c3ccc(Cl)cc3)cs2)CC1 | -8.73
CN(c1ccccc1C(=O)NCc1ccco1)S(C)(=O)=O | 15.5
COc1cc(Cl)c(C)cc1N1C(=O)CN(Cc2ccccc2)C1=S | 0.634
Nc1nnc(SCc2ccc(F)cc2Cl)s1 | -7.73
O=c1[nH]c(=O)n(C2CCCCC2)c(O)c1/C=C/C=Nc1ccccc1 | 15.7
CC1CCN(C(=O)CN2C(=O)C(C)(C)Oc3ccc(C(=O)NC4CCCC4)cc32)CC1 | -1.35
CC1CCN(CC(O)Cn2c3ccccc3c3ccccc32)CC1 (stereo not drawn) | -54
CC1(C)CC(=O)C(C(c2ccc(Br)cc2)C2C(=O)CC(C)(C)CC2=O)C(=O)C1 | 0.769
CC(=O)c1ccc(-c2ccc(C(=O)NC3CCCCCC3)o2)cc1 | 26
O=C(COC(=O)Cc1ccccc1)Nc1cccnc1Cl | 25.1
COc1cc(C(=S)N2CCOCC2)ccc1OC(=O)c1cccc(C)c1 | -3.3
Cc1ccc(C2C(=O)c3ccccc3C2=O)cc1 | 20.2
COc1c2ccccc2c(OC)c2ccccc12 | 12.9
COCCn1c(SCC(=O)Nc2ccccc2C)nc2c(oc3ccccc32)c1=O | -7.62
COC(=O)N1C(=O)[C@](c2ccccc2)(C2CCCCC2)N1C(=O)OC | -2.97
CC1CCCN(S(=O)(=O)c2cnc[nH]2)C1 (stereo not drawn) | 19.9
Cc1ccc(/C=N/NC(=O)C(c2ccncc2)N2CCOCC2)cc1 (stereo not drawn) | 23.3
Cc1cc(C(=O)NNC(=O)c2sccc2C)c(C)o1 | 7.27

Structure (SMILES) | hERG current change (%, negative = inhibition) at 10uM [%]
CC(=O)NC(=S)Nc1ccccc1C(=O)NC1CCCCC1 | 3.33
O=C1c2ccccc2S(=O)(=O)c2cc(C(=O)N3CCN(C(=O)c4ccccc4)CC3)ccc21 | -15.1
NC(=NC(=O)c1ccccc1)C1=C(O)CCC1=O | 9.75
CCn1c(-c2cccc(Br)c2)n[nH]c1=S | 13.1
Cc1ccc(NC(=O)CN(C)S(=O)(=O)c2cnc[nH]2)c(C)c1 | 19.2
N#CC1=C(S)N(c2ccccc2)C(c2ccc(-c3ccc(Cl)c(Cl)c3)o2)NC1=O (stereo not drawn) | -2.64
COc1ccc(OC)c(C(=O)CSc2nnc(-c3cccnc3)n2C)c1 | -3.44
CSc1c(SCc2ccccc2)cnn(-c2ccccc2)c1=O | 2.2
Cc1ccc(C2CC(c3cccs3)=NN2C(=O)CSC2=NCCS2)cc1 (stereo not drawn) | -2.21
O=C(NNC(=O)c1cccs1)c1ccc(Cl)c(Cl)c1 | 12.4
Clc1ccc(CSc2nnc(/C=C/c3ccccc3)o2)cc1 | 1.88
Cc1cccc(N2CCN(C(=O)COc3ccc4c(C)cc(=O)oc4c3C)CC2)c1C | 13.6
Cn1c(NC2CCCCC2)c(N=O)c(=O)n(C)c1=O | 20.7
CC(C)=CCCC(C)CN1CCC(n2nccc2NC(=O)c2ccccc2)CC1 (stereo not drawn) | -69.6
Cc1cc(NC(=O)Cn2ccsc2=N)c([N+](=O)[O-])cc1C.Cl | 4.96
Cc1nnc(-c2ccccc2)c(=O)n1/N=C/c1c(O)ccc2ccccc12 | -3.04
Cc1cc(Br)ccc1NC(=O)C1CCCO1 (stereo not drawn) | 5.26
Cc1[nH]n(-c2ccccc2)c(=O)c1C=NCC1CCCO1 (stereo not drawn) | 13.8
Cc1ccc(NC(=O)N2CCN(C/C=C/c3ccccc3)CC2)cc1 | -44.6
CNC(=O)ON(C(=O)NC)C1N(C)C(=S)SC1(C)C (stereo not drawn) | -0.704
O=C(c1ccco1)N(Cc1ccc(Cl)cc1)Cc1ccco1 | -41.2
CC(C)C[C@H](NC(=O)c1[nH]cnc1C(=O)N[C@@H](C)c1ccccc1)C(=O)OCc1ccccc1 | 23.4
CC1CCN(S(=O)(=O)c2ccc(NC(=O)CSc3nnnn3C)cc2)CC1 | 2.11
O=C(Nc1nnc(Cc2ccccc2F)s1)c1ccccc1Cl | 12.6

Structure (SMILES) | hERG current change (%, negative = inhibition) at 10uM [%]
CC(O)[C@H]1CNCCN1CCc1cccc2ccccc12 (stereo partly drawn) | 0.0573
CCCCOc1ccc(C(=O)NCCOc2cccc(OC)c2)cc1 | 11.2
CN(C)C(=O)COc1ccc2c(-c3ccccc3)cc(=O)oc2c1 | -0.783
Cc1cc(C)nc(SCC(=O)c2cc3ccccc3oc2=O)n1 | -4.4
CCOc1cc2c(cc1OCC)-n1cccc1C(c1ccc(OC)c(OC)c1)NC2.Cl (stereo not drawn) | -30.2
COc1ccc(CN2CCc3ccc(NC(=O)c4ccncc4)cc3C2)c(F)c1 | -14.5
CC1(C)Cc2cccc(OCC(N)=O)c2O1 | 16.7
C=CCN1C(=O)/C(=C/C(=O)OC)S/C1=N\NC(=O)c1ccccc1 | 4.18
CCc1n[nH]c(=S)n1/N=C/c1cccc2ccccc12 | 14.4
CCc1ccc(NC(=O)N2CCc3ccccc3C2)cc1 | -1.47
CC(=O)Nc1cccc(NC(=O)CSc2nc(=O)n3cccc(C)c3n2)c1 | 14.9
CC(=O)Nc1nc2ccccc2n1CCOc1ccccc1Cl | 13.7
Cc1cc(C(=O)Nc2nc3c(s2)CCCC3)cs1 | 1.75
Cc1ccc(C2(CCNCc3ccc(N(C)C)cc3)CCOC(C(C)C)C2)cc1 (stereo not drawn) | -64.1
Cn1cnc(S(=O)(=O)N2CCN(C(c3ccc(F)cc3)c3ccc(F)cc3)CC2)c1 | -7.05
O=C(OC1CCOC1=O)c1ccc(S(=O)(=O)N2CCCCCC2)cc1 (stereo not drawn) | 8.9
O=C(Nc1nnc(SCc2ccc(F)cc2)s1)c1cnccn1 | -3.13
CCc1ccc(OCc2nnc(SCCN3CCOCC3)n2C)cc1.O=C(O)C(=O)O | 0.796
Cn1cnnc1SCC(=O)c1ccc2c(c1)OCO2 | -16.5
COc1ccc(C(C#N)(CC(=O)O)c2cnccn2)cc1OC (stereo not drawn) | 9.24
N#Cc1c(/N=C/c2c(O)n(Cc3ccco3)c(=O)[nH]c2=O)sc2c1CCCC2 | -12.9
